Measurements from patent US7728040B1, “Polyamine conjugates as selective NMDA inhibitors and anti-cancer drugs” (University of Central Florids Research Foundation, Inc., priority 2002, dated 2010).

How the values were obtained:
B16 (melanoma) cells [1] = assay: cells; settings: Mus musculus, read-out: IC50 B16 (melanoma)
[2] = system: Mel-A (normal melanocyte) cells; assay: cells; settings: read-out: IC50 Mel-A (normal melanocyte)
B16 (melanoma) cells [3] = system: B16 (melanoma) cells
[4] = system: Mel-A (normal melanocyte) cells

Structure (SMILES) | IC50 (B16 (melanoma) cells [1]; B16, 24 h) | IC50 (B16 (melanoma) cells [1]; B16, 48 h) | IC50 (B16 (melanoma) cells [1]; B16, 72 h) | IC50 ([2]; 24 h) | IC50 ([2]; 48 h) | IC50 ([2]; 72 h) | IC50 ratio (35/8e), fold higher cytotoxicity than control 35 in B-16 cells (B16 (melanoma) cells [3]) | IC50 ratio (35/8e) in B-16 cells, worked example 19.25/1.93 (B16 (melanoma) cells [3]; 24 h) | Mel-A/B16 IC50 ratio, worked example 6.49/0.62 (B16 (melanoma) cells [3]; 72 h values of Table 3) | IC50 ratio (35/8e) in Mel-A cells, worked example 44.3/16.47 ([4]; 24 h) | IC50 ratio (35/8e), fold higher cytotoxicity than 35 in Mel-A cells ([4]; mouse)
Cl.Cl.Cl.NCCCCN(CCCCN)Cc1c2ccccc2cc2ccccc12 [Compound 8e, N-(4-Amino-butyl)-N-anthracen-9-ylmethyl-butane-1,4-diamine, trihydrochloride] | 1.93 µM | 1.1 µM | 0.62 µM | 16.5 µM | 8.27 µM | 6.49 µM | 10-32 fold | 10 | 10.5 | 2.7 | 2-4 fold
CCCCNCc1c2ccccc2cc2ccccc12 [Compound 35, N^1-Anthracen-9-ylmethyl-butylamine Monohydrochloride] | 19.2 µM | – | 20.4 µM | – | – | 15 µM | – | – | – | – | –

Where a name gives a salt, the structure may show the parent alone. Read-outs that look alike come from different tables or passages of the source.
